“And” between values parts separate entries of the source, which are not always exact repeats. Identical values can stand only once. The whole screen tested about 48,000 compounds, of which about 1,200 (2.5%) were called active. Inconclusive results (about 2%) are left out.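 Rule for the calls: active = activation of at least 60% and not above a set upper limit (about 1 call in 100 departs from these limits); inconclusive = activation of 40% to 60%, or above that upper limit; inactive = activation under 40%.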 This is one part of the list.
These compounds were tested against Probable G-protein coupled receptor 32 (Homo sapiens) (UniProt O75388) (assay: qHTS for Agonists of Human Resolvin D1 Receptor DRV1). Settings: CHO-K1 GPR32 beta-arrestin PathHunter luminescence, 90 min; at 76.9 µM; hits give high values; zero percent set by DMSO-only wells.
UniProt O75388, sequence (O75388 whole entry, looked up): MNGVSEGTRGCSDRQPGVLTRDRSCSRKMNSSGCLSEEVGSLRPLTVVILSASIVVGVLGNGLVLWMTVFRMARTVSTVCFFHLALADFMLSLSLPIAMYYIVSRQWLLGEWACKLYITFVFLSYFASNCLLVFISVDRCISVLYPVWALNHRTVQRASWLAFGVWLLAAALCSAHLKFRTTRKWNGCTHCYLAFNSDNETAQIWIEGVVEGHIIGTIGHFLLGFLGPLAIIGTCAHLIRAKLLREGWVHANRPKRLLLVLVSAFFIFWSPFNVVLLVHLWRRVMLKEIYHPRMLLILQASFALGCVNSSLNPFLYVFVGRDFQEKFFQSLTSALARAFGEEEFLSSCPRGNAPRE
Outline: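 Beta-arrestin recruitment read-out: luminescence from complemented beta-Gal in CHO-K1 GPR32 PathHunter cells, measured 1 h after detection reagent at ambient temperature following 90 min compound exposure at 37 °C; DMSO served as basal (EC0) control.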

activation, inactive:
COc1cc(NC(=O)NC(C)c2c(-n3cccc3)sc3c2CCN(C)C3)cc(OC)c1 (stereo not drawn) -17%
COc1cccc(-n2c(SCC(=O)N3CCCc4ccccc43)nc3c([nH]c4ccccc43)c2=O)c1 -5.7%
CCOc1ccc(CNC(=O)c2cc3c(s2)-c2ccccc2OC3)cc1 -0.654%
O=C(c1ccc2c(c1)CCCC2)N1CCN(c2nc3ccc(F)cc3s2)CC1 -7.69%
O=C(CCSCc1cccc(F)c1)NCc1ccccc1 4.34%
COc1ccc(Cl)cc1NC(=O)Cn1c(=O)n(CCCC(=O)NCCc2ccc(OC)c(OC)c2)c(=O)c2ccccc21 9.05%
CCc1ccc(NC(=O)c2ccc3c(O)c(S(=O)(=O)c4ccccc4)c(=O)[nH]c3c2)cc1 5.77%
COc1ccccc1C(=O)Nc1ccc(OCc2cc(=O)n3cccc(C)c3n2)cc1 -2.82%
Cc1c(NC(=O)c2ccc(Cl)cc2)cc(C(C)C)c(O)c1S(=O)(=O)c1ccccc1 6.34%
O=C(NCC1CCN(Cc2ccccc2Cl)CC1)c1cc2ccc3cccnc3c2[nH]1 -5.42%
COc1ccccc1CNC(=O)CCc1c(C)nn(-c2ccc(N3CCCC3)nn2)c1C -17.6%
Cc1cc(=O)n(Cc2ccccc2Cl)c2c1c(C)nn2-c1ccccc1 -0.0911%
Cc1cc(NC(=O)CSc2nc3c([nH]c4ccccc43)c(=O)n2-c2ccc(Cl)cc2)no1 0.3%
COc1ccccc1CNC(=O)CCS(=O)(=O)c1ccc2c(c1)CC(C)N2C(=O)C1CC1 (stereo not drawn) -1.25%
Cc1ccc(CSc2nc3ccsc3c(=O)n2CCC(C)C)cc1 -36.9%
O=c1oc2ccc(F)cc2cc1-c1nc(-c2cccs2)no1 -3.04%
COc1ccc(CC(=O)Nc2nnc3n2CCS3)cc1 1.22%
O=C(CC1Oc2ccccc2NC1=O)NCc1ccc(F)cc1 (stereo not drawn) -0.137%
CCn1c2c(c(=O)n3ncc(C(=O)Nc4ccc(F)cc4Cl)c13)CN(Cc1ccc(OC)cc1)CC2 -11.1%
CCN1CCN(C(=O)c2ccc3c(c2)N(Cc2ccc(F)cc2)C(=O)c2ccccc2S3(=O)=O)CC1 -24.9%
Cc1cccc(OCc2nnc(-c3ccccc3)o2)c1 -14.2%
CCOc1ccc(NC(=O)c2oc(=O)c3ccccc3c2-c2ccc(C)cc2)cc1 10.1%
COc1cccc(NC(=O)c2sc3nc(C)c(C(=O)Nc4ccc(C)cc4C)c(-c4cccs4)c3c2N)c1 -19.8%
CCOc1ccc(-n2c(Cc3ccccc3)nnc2SCc2nc(-c3cccs3)no2)cc1 5.24%
Cc1ccn2c(Nc3c(C)cccc3C)c(-c3ccc(Cl)s3)nc2c1 1.64%
Cc1cc(C)cc(NC(=O)C2CCN(S(=O)(=O)c3c(C)noc3/C=C/c3ccco3)CC2)c1 -35.6%
Cc1ccc2scc(N3CCN(c4cccc(C(F)(F)F)c4)CC3)c(=O)c2c1 -23.2%
CCCCN(CCCC)C1=C(C(=O)c2ccccc2)N(CC)S(=O)(=O)c2ccccc21 -72.7%
COC(=O)CN1C(=O)C(C)(C)c2cc(S(=O)(=O)NCc3ccc(Cl)cc3)ccc21 8.25%
COCCCNc1nc2c(c(=O)n(C)c(=O)n2C)n1Cc1ccccc1 -1.35%
COCCOC(=O)C1=C(C)N=C2SCCC(=O)N2C1c1ccc(OCc2ccccc2)c(OC)c1 (stereo not drawn) -25%
COc1cccc(-c2[nH]c3c(c2-c2c(-n4cccc4)n(C)c(=O)[nH]c2=O)c(=O)[nH]c(=O)n3C)c1 24.3%
CN(C)c1ccc(CNC(=O)CCn2c(=O)c3cccn3c3ccc(F)cc32)cc1 -0.944%
COc1ccccc1N1CCN(c2cc(C)nc3c(-c4ccc(Cl)cc4)c(C)nn23)CC1 7.14%
CCc1nnc2c(NCc3cccc(OC)c3)nc3ccccc3n12 10.1%
COCCNC(=O)CCSc1nc(-c2ccc3c(c2)OCO3)cc(C(F)(F)F)n1 -2.63%
Cc1ccc(C(=O)N2CCc3cc(CNC(=O)c4ccnn4C)ccc32)cc1 -15.3%
CCN(CC)S(=O)(=O)c1ccc2c(c1)c(=O)c(C(=O)NCc1ccccc1OC)cn2C -3.38%
CCOc1ccccc1C(=O)Nc1nnc(COC)s1 -13.8%
O=C(NCc1ccc2c(c1)CCN2C(=O)c1ccccc1)c1ccc(Br)o1 1.64%
Cc1ccc(NS(=O)(=O)c2ccc3c(c2)NC(=O)CCS3)cc1F 19.8%
Cn1c(=O)c2c(ncn2C)n(C)c1=O -10.7% and 10.4%
Cc1cn(C)c(CC(=O)N2CCN(c3ccc(F)cc3)CC2)c1C(=O)O -5.89%
COC(=O)c1ccccc1NC(=O)Cn1nc(C(F)(F)F)c2c1CCCC2 -28.9%
CCN(C(=O)Cn1cc(C(=O)c2ccc(F)cc2)c(=O)c2ccc(C)nc21)c1cccc(C)c1 -17.8%
CC1CCCCN1c1nc(-c2ccc(C(C)(C)C)cc2)nc2ccccc12 (stereo not drawn) -22.6%
COc1cc(NC(=O)Cn2c(=O)nc(-c3ccccc3F)c3cc(Cl)ccc32)cc(OC)c1 0.293%
Cc1ccc(C)c(N2CCN(C(=O)Cn3c(C)c4cnn(-c5ccccc5)c(=O)c4c3C)CC2)c1 1.75%
CCOC(=O)c1cc(OC(=O)c2cccc(Cl)c2)n(-c2ccccc2)n1 8.5%
CCOc1ccc(C(=O)N2CCC(c3ccncc3)CC2)cc1 16.5%
COc1cccc(-n2c(-c3ccc(C)cc3)cc3c2CC(C)(C)CC3=O)c1 -24.8%
CCCCOc1ccc(CNC(=O)c2cnc3sc(N4CCC(C)CC4)nn3c2=O)cc1 -9.64%
CC(C)c1nc2ccc(C(=O)NCCCN3CCN(c4ccc(F)cc4)CC3)cc2o1 -15.1%
CCC1CN(C(=O)N2CCC(C(=O)NCc3ccco3)CC2)c2cc(C)ccc2O1 (stereo not drawn) -6.21%
COc1ccc(OC)c(NC(=O)CCc2c(C)nc3c(c(C)nn3C(C)(C)C)c2C)c1 -3.67%
CC(C)c1ccc2occ(CC(=O)Nc3cccc(C(F)(F)F)c3)c2c1 35.4%
Cc1ccc2c(c1)CC(C)N2S(=O)(=O)c1nnc(NC(=O)CC(C)C)s1 (stereo not drawn) -21.6%
Cc1cc(C)c2c(CC(=O)Nc3c(C(=O)c4ccc(F)cc4)oc4ccccc34)coc2c1 3.17%
CC(CNC(=O)Cn1c(-c2cccs2)cc2cc(Cl)ccc21)c1ccccc1 (stereo not drawn) -8.38%
COc1cc(Cl)c(C)cc1NC(=O)CCn1cnc2onc(-c3ccc(F)cc3)c2c1=O 0.909%
COCC(C)NS(=O)(=O)c1ccc(N2CCCCS2(=O)=O)cc1 (stereo not drawn) 4%
CCN1C(C(=O)c2ccccc2)=C(NC(=O)c2ccc(Cl)cc2)c2ccccc2S1(=O)=O -11.6%
CCOC(=O)c1ccc(NC(=O)c2sc3nc4n(c(=O)c3c2C)CCC4)cc1 -4.28%
CCOc1ccc(NC(=O)Cn2c(=O)n(CC(=O)NCCc3ccccc3)c(=O)c3sccc32)cc1 -9.87%
Cc1ccc(C)c(S(=O)(=O)c2cn(Cc3ccccc3)c3cc(N4CCCC4)c(F)cc3c2=O)c1 -17.9%
Cc1ccc2c(CC(=O)Nc3c(C(=O)c4ccc(F)cc4)oc4ccccc34)coc2c1C -18.3%
CC(C)c1ccc(NC(=O)C(Cc2ccccc2)n2cccc2)cc1 (stereo not drawn) -11.3%
COc1cccc(C(=O)NCCc2sc(-c3cccc(C)c3)nc2C)c1 19.6%
Cc1cccc(C)c1NC(=O)c1cc(S(=O)(=O)N2CCCc3ccccc32)ccc1F -12.1%
CC(=O)N1CCCc2cc(S(=O)(=O)Nc3ccc(OC(F)(F)F)cc3)ccc21 -14.5%
Cc1ccc(-n2ccn(CC(=O)c3ccc(F)cc3)c(=O)c2=O)cc1C -12.5%
Cc1ccc(-n2[nH]c(C)c(N=Nc3cccc(-c4cccc(C(=O)O)c4)c3O)c2=O)cc1C 29.6%
COc1cccc(NC(=O)c2oc3ccccc3c2NC(=O)c2ccc(OC(C)C)cc2)c1 -26.3%
CC(=O)Nc1nonc1-c1nnc(SCC(=O)Nc2c(C)cccc2C)n1-c1ccccc1 -9.77%
CCn1cc(C(=O)NCc2ccc(Cl)cc2)c(=O)c2cc(S(=O)(=O)N3CCc4ccccc4C3)ccc21 32.6%
CCOC(=O)c1ccc(N2C(=O)c3[nH]nc(-c4ccccc4)c3C2c2ccc(C(C)C)cc2)cc1 (stereo not drawn) -14.6%
COc1ccc2c(CNCCc3ccco3)c(C(=O)O)n(Cc3ccc(F)cc3)c2c1 33.4%
Cc1ccc2c(c1)c1c(c(=O)n(-c3ccccc3C)c(=O)n1Cc1cccc(F)c1)n2C -5.65%
Cc1ccc(Cl)cc1NC(=O)C(NS(=O)(=O)c1ccc2c(c1)CCC(=O)N2)c1ccccc1 (stereo not drawn) -6.74%
CC1=C(c2ccc(F)cc2)S(=O)(=O)NC1=NCc1ccccc1Cl -9.46%
Cc1cccc(NC(=O)CC2C(=O)OCCN2Cc2ccccc2)c1 (stereo not drawn) 19.3%

activation, active:
Cc1ccc(-c2nc(-c3cc4cccc(OCc5cccc(F)c5)c4oc3=O)no2)cc1 82.2%
CC(C)(C)C(=O)Nc1ccc2nc(SCc3ccccc3)sc2c1 120%

— PubChem BioAssay AID1346428 (National Center for Advancing Translational Sciences (NCATS), 2018)
